Assay results reported in publication PMC4336329 (PLoS ONE, 2015).
Hit rate of the full screen: of about 310,000 compounds, about 14,000 (4.5%) showed an effect of 50% or more. The effect is printed as a negative number. The list shows a part of the results.

What follows are molecules tested against human ether-à-go-go-related gene (hERG) potassium channel (human, UniProt Q12809) (assay: primary screen, population patch clamp on CHO cells stably expressing hERG).
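Also: peak tail current of the secondary pulse compared with the same well before compound.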

Chain of human ether-à-go-go-related gene (hERG) potassium channel (Q12809 whole entry, looked up): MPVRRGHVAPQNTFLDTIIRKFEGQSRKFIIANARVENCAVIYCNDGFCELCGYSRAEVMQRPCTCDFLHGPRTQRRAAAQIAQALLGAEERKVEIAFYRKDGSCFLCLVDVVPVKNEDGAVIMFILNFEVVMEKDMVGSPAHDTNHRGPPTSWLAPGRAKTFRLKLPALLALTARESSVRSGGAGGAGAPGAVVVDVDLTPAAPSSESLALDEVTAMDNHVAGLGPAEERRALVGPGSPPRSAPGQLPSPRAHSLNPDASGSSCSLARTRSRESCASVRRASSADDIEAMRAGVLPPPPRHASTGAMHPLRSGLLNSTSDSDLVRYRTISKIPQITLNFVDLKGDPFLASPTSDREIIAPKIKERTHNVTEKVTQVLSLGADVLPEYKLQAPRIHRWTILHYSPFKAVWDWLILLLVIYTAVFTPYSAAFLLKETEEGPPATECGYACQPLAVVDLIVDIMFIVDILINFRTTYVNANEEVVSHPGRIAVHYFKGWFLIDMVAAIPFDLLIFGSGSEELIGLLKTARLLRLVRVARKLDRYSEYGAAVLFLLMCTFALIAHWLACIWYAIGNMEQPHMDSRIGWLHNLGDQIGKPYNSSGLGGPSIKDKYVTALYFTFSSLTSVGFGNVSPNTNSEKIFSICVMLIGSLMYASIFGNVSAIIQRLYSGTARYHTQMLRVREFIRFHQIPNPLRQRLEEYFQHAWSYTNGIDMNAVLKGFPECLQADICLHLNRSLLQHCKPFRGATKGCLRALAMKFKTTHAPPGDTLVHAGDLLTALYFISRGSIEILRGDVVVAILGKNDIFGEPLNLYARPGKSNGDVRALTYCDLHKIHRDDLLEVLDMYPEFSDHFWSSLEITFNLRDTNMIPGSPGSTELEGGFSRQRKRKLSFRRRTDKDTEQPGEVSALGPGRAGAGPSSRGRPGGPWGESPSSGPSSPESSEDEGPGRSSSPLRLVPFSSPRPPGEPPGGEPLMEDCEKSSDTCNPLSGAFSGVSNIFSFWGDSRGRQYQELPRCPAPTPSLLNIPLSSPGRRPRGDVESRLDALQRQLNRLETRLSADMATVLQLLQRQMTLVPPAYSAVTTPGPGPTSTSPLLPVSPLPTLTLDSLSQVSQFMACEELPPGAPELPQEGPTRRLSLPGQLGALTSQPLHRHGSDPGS

Question: How did the “hERG current change (%, negative = inhibition) at 10uM” value turn out when `CC(=O)N1CCN(S(=O)(=O)c2cccc(C(=O)Nc3ccc(C)cn3)c2)CC1` was run?
Answer: The value was -14.9%.

Question: `CSc1nc(NCCCN(C)C)c2c3c(sc2n1)CN(C)CC3` was tested. Which “hERG current change (%, negative = inhibition) at 10uM” value did it give?
Answer: Its value is 1.56%.

Question: For `Nc1nccnc1C(=O)OCC(=O)NNC(=O)c1ccccc1`, which “hERG current change (%, negative = inhibition) at 10uM” value is on record?
Answer: The value was 11.2%.

Question: `COc1cccc(CNC(=O)CCC2CCCN(C(=O)c3cc4ccccc4o3)C2)c1` (stereo not shown) was tested. Which “hERG current change (%, negative = inhibition) at 10uM” value did it give?
Answer: The value was -47.7%.

Question: Which “hERG current change (%, negative = inhibition) at 10uM” value does the source give for `CC1CCC(C(=O)NC(C(=O)NCCCN2CCOCC2)C(C)C)CC1` (stereo not shown) here?
Answer: Its value is -17.8%.

Question: With `Cc1ccc(C(=O)CSc2nnc(-c3ccccc3N)n2C)cc1` as the molecule, how does the “hERG current change (%, negative = inhibition) at 10uM” value read?
Answer: The value was -8.87%.

Question: Which “hERG current change (%, negative = inhibition) at 10uM” value does the source give for `CN(c1ccc(C(=O)NCCSCc2ccc(Cl)cc2)cc1)S(=O)(=O)c1ccccc1` here?
Answer: Its value is 1.54%.

Question: Which “hERG current change (%, negative = inhibition) at 10uM” value does the source give for `N#Cc1cccc(S(=O)(=O)N2CCN(c3ccnc4cc(Cl)ccc34)CC2)c1` here?
Answer: Its value is -70.7%.

Question: With `Cc1ccc(S(=O)(=O)C(C#N)c2nc3ccccc3nc2N2CC(C)OC(C)C2)cc1C` (stereo not shown) as the molecule, how does the “hERG current change (%, negative = inhibition) at 10uM” value read?
Answer: Its value is -7.05%.

Question: With `Cc1cccc(N2CCN(S(=O)(=O)c3ccc4c(c3)CCC(=O)N4)CC2C)c1` (stereo not shown) as the molecule, how does the “hERG current change (%, negative = inhibition) at 10uM” value read?
Answer: The value was -8.91%.

Question: For `COc1ccc(C(=O)NCc2nnc(SCC(=O)NCCc3ccccc3)o2)cc1`, which “hERG current change (%, negative = inhibition) at 10uM” value is on record?
Answer: The value was 6.94%.

Question: `CC1=C(C(=O)OC(C)C)C(c2ccc3c(c2)OCO3)NC(=O)N1` (stereo not shown) was tested. Which “hERG current change (%, negative = inhibition) at 10uM” value did it give?
Answer: Its value is 10.7%.

Question: With `CN(CCC#N)C(=O)COC(=O)c1ccccc1OCc1ccccc1Cl` as the molecule, how does the “hERG current change (%, negative = inhibition) at 10uM” value read?
Answer: The value was 1.72%.

Question: For `CCOC(=O)Cc1csc(Nc2c(C)n(C)n(-c3ccccc3)c2=O)n1`, which “hERG current change (%, negative = inhibition) at 10uM” value is on record?
Answer: Its value is 0.0496%.

Question: For `CC1=CC(=O)C(C(C)C)=CC1=NC(=O)c1ccc(C)cc1`, which “hERG current change (%, negative = inhibition) at 10uM” value is on record?
Answer: Its value is 52.7%.

Question: `CC(=O)Nc1ccc(NC(=O)C2CCCN2S(=O)(=O)c2cccc(C(F)(F)F)c2)cc1` (stereo not shown) was tested. Which “hERG current change (%, negative = inhibition) at 10uM” value did it give?
Answer: Its value is -11.3%.

Question: `CCCCC(=O)NC(c1ccc(Cl)cc1Cl)c1ccc2cccnc2c1O` (stereo not shown) was tested. Which “hERG current change (%, negative = inhibition) at 10uM” value did it give?
Answer: The value was 13.5%.

Question: With `N=c1c(C(=O)NCc2ccc(F)cc2)cc2c(=O)n3ccccc3nc2n1CCCN1CCOCC1` as the molecule, how does the “hERG current change (%, negative = inhibition) at 10uM” value read?
Answer: The value was -83%.

Question: For `COc1ccc(C(=O)NN/C(C)=C/C(=O)C(F)(F)C(F)(F)C(F)(F)F)cc1`, which “hERG current change (%, negative = inhibition) at 10uM” value is on record?
Answer: The value was -6.52%.

Question: Which “hERG current change (%, negative = inhibition) at 10uM” value does the source give for `CC(C)(C)c1ccc(C(=O)c2c[nH]c(C(=O)NCCCn3ccnc3)c2)cc1` here?
Answer: Its value is -71.3%.

Question: With `Cc1ccccc1OCC(=O)Nc1ccccc1N1CCOCC1` as the molecule, how does the “hERG current change (%, negative = inhibition) at 10uM” value read?
Answer: Its value is -23.2%.

Question: `Cc1cc(C)cc(OCC(=O)Nc2cccc(-c3nc4ncccc4o3)c2)c1` was tested. Which “hERG current change (%, negative = inhibition) at 10uM” value did it give?
Answer: The value was 2.81%.

Question: For `COC(=O)C(Cc1c[nH]c2ccccc12)NC(=O)C(C)C` (stereo not shown), which “hERG current change (%, negative = inhibition) at 10uM” value is on record?
Answer: Its value is 5.3%.

Question: Which “hERG current change (%, negative = inhibition) at 10uM” value does the source give for `O=C(Nc1cccc(-c2nc3ccccc3[nH]2)c1)c1cccc(NC(=O)c2ccco2)c1` here?
Answer: The value was 15.2%.

Question: How did the “hERG current change (%, negative = inhibition) at 10uM” value turn out when `COCC(=O)Nc1nnc(C2CCCCC2)s1` was run?
Answer: The value was -1.63%.

Question: `O=C(COc1cccc2ccccc12)Nc1cc(S(=O)(=O)N2CCOCC2)ccc1N1CCOCC1` was tested. Which “hERG current change (%, negative = inhibition) at 10uM” value did it give?
Answer: The value was -12.5%.

Question: With `Cc1ccc(-n2ncc(C(=O)O)c2C2CCN(C(=O)OC(C)(C)C)CC2)cc1` as the molecule, how does the “hERG current change (%, negative = inhibition) at 10uM” value read?
Answer: The value was -3.86%.

Question: With `Cc1cc(Br)ccc1SCC(=O)OCC(=O)NCc1ccco1` as the molecule, how does the “hERG current change (%, negative = inhibition) at 10uM” value read?
Answer: Its value is 0.539%.

Question: How did the “hERG current change (%, negative = inhibition) at 10uM” value turn out when `CCC(CC)C(=O)Nc1nnc(S(=O)(=O)Nc2ccccc2C)s1` was run?
Answer: Its value is 15.7%.

Question: With `O=C(CSc1nc2ccccc2c(=O)n1CC1CCCO1)NCCc1ccccc1` (stereo not shown) as the molecule, how does the “hERG current change (%, negative = inhibition) at 10uM” value read?
Answer: Its value is 7.48%.

Question: `O=C(NC1CC1)c1ccc2c(c1)C1C3CCC(C3)C1C(c1ccccc1)N2` (stereo not shown) was tested. Which “hERG current change (%, negative = inhibition) at 10uM” value did it give?
Answer: Its value is -5.38%.

Question: Which “hERG current change (%, negative = inhibition) at 10uM” value does the source give for `COc1ccccc1S(=O)(=O)Cc1ccc(C(=O)NC2CC2)o1` here?
Answer: Its value is 18.5%.

Question: Which “hERG current change (%, negative = inhibition) at 10uM” value does the source give for `CCc1ccccc1NC1c2ccccc2C(=O)N1Cc1ccco1` (stereo not shown) here?
Answer: The value was -23.7%.

Question: With `N#CCn1cnc2sc(-c3ccccc3)cc2c1=O` as the molecule, how does the “hERG current change (%, negative = inhibition) at 10uM” value read?
Answer: The value was 13.1%.

Question: With `CCOc1ccc(C(C)(C)C)cc1S(=O)(=O)n1nc(C)cc1C` as the molecule, how does the “hERG current change (%, negative = inhibition) at 10uM” value read?
Answer: Its value is -18.9%.

Question: With `Cn1cccc1/C=C(\C#N)C(N)=S` as the molecule, how does the “hERG current change (%, negative = inhibition) at 10uM” value read?
Answer: The value was 8.65%.

Question: How did the “hERG current change (%, negative = inhibition) at 10uM” value turn out when `COC(=O)Cn1c(CCC(=O)O)ccc1-c1ccccc1` was run?
Answer: The value was 10.8%.

Question: How did the “hERG current change (%, negative = inhibition) at 10uM” value turn out when `CCCNC(=O)COC(=O)c1ccc(N2CCCC2)c([N+](=O)[O-])c1` was run?
Answer: Its value is -14.6%.

Question: `Cc1[nH]c2ccccc2c1C(=O)CN1CCN(c2ccc(Cl)cc2)CC1` was tested. Which “hERG current change (%, negative = inhibition) at 10uM” value did it give?
Answer: The value was 12.2%.

Question: Which “hERG current change (%, negative = inhibition) at 10uM” value does the source give for `Cc1cc(NC(=O)C(C)SCC(=O)Nc2nnc(CC(C)C)s2)no1` (stereo not shown) here?
Answer: The value was 8.03%.

Question: How did the “hERG current change (%, negative = inhibition) at 10uM” value turn out when `N#CC1=C(N)Oc2n[nH]c(-c3cccnc3)c2C1c1ccc([N+](=O)[O-])o1` (stereo not shown) was run?
Answer: Its value is -1.77%.

Question: `COc1ccccc1C(CNC(=O)c1cccc(NS(=O)(=O)c2ccc(Br)cc2)c1)N(C)C` (stereo not shown) was tested. Which “hERG current change (%, negative = inhibition) at 10uM” value did it give?
Answer: The value was -51.7%.

Question: How did the “hERG current change (%, negative = inhibition) at 10uM” value turn out when `CC(=O)C1C(=O)c2c(cccc2[N+](=O)[O-])C1=Nc1ccccc1C` (stereo not shown) was run?
Answer: Its value is -6.73%.
